# Assay results published in the antibiotic and cytotoxicity screens of Wong et al. (2023).
# Some of the results follow.
# Tested on: HSkMC (human skeletal muscle cells)
# Test: cytotoxicity call (relative viability < 0.9)
# Conditions: 10 µM
row,SMILES,cytotoxicity call
1,O=c1nc[nH]c2c1ncn2[C@H]1CC[C@@H](CO)O1,inactive
2,C[C@@H]1CN([C@@H](C)CO)C(=O)c2cc(NS(=O)(=O)c3cn(C)cn3)ccc2O[C@@H]1CN(C)S(=O)(=O)c1ccccc1,inactive
3,CC(C)NC(=O)Nc1cccc2c1O[C@H](CN(C)S(=O)(=O)c1cn(C)cn1)[C@H](C)CN([C@H](C)CO)C2=O,inactive
4,Cc1noc(C)c1NC(=O)Nc1ccc2c(c1)CC(=O)N([C@@H](C)CO)C[C@@H](C)[C@@H](CN(C)C(=O)Nc1ccc(C(F)(F)F)cc1)O2,inactive
5,C[C@@H]1CCCCO[C@@H](CN(C)Cc2ccc(C(F)(F)F)cc2)[C@@H](C)CN([C@H](C)CO)C(=O)c2cc(NS(=O)(=O)c3cn(C)cn3)ccc2O1,inactive
6,O=C1OCCN1N=Cc1ccc([N+](=O)[O-])o1,inactive
7,Cc1noc(C)c1NC(=O)Nc1ccc2c(c1)C(=O)N([C@@H](C)CO)C[C@H](C)[C@H](CN(C)C(=O)Nc1ccccc1)OCCCC[C@H](C)O2,inactive
8,C[C@H]1CN([C@@H](C)CO)C(=O)Cc2cc(NS(=O)(=O)c3cn(C)cn3)ccc2O[C@@H]1CN(C)Cc1ccccc1,inactive
9,O=C(O)c1n[nH]c2c1CCC2,inactive
10,C(=N\Cc1cccnc1)/c1c2ccccc2cc2ccccc12,inactive
11,COc1ccc(C(=O)Nc2ccc(CN3C(=O)[C@]4(O[C@H](CC(=O)N5Cc6ccccc6C[C@H]5CO)[C@@H]([Si](C)(C)c5ccc(OC)cc5)[C@@H]4C)c4ccccc43)cc2)cc1,inactive
12,C[C@H](CO)N1C[C@H](C)[C@H](CN(C)C(=O)C2CCCCC2)OCCCC[C@H](C)Oc2ccc(NC(=O)Nc3ccc(F)cc3)cc2C1=O,inactive
